# Laboratory results as given in PubChem BioAssay AID493208 (National Center for Advancing Translational Sciences (NCATS), 2011).
# The campaign covered roughly 44,000 compounds. About 340 (0.77%) were called active. Roughly 5% stayed inconclusive and do not appear here. The call rests on the fitted dose curve; in most records, active means well fitted inhibition curve with a large enough effect; inconclusive means small, poorly fitted or top-dose-only effect; inactive means flat fitted curve, though single readings scatter. This is one part of the list.
# Assay: Acumen qHTS Assay for Inhibitors of the mTORC1 Signaling Pathway in MEF (Tsc2-/-, p53-/-) Cells: Sytravon; further: nearly all actives have a fitted effect of over 50% in size;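 on activity change, negative = inhibition: plate controls were DMSO for no effect and rapamycin for full effect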
# Settings: phospho-rpS6 immunofluorescence/PI, 24 h; series mostly up to 38.3 µM; activity change, negative = inhibition: at the top concentration
# In short: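 Plate MEFs (Tsc2-/-, p53-/-, empty vector) in DMEM/10% FBS; after 24 h add compound, incubate 24 h at 37 degree Celsius; fix in PFA/TX-100, block, stain phospho-rpS6 and 10 uM PI; scan at 488 nm; report % positive cells.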
# Potency means the concentration at half of the fitted maximal effect.
SMILES,"activity change, negative = inhibition",Potency
CCN(c1ccccc1)S(=O)(=O)c1nnc(NC(=O)c2cccs2)s1,inactive: 2.98%,–
Cc1ccc(-n2nc(C(=O)N3CCC(C)CC3)c(=O)n(C)c2=O)cc1,inactive: -4.81%,–
Cc1ccc(CNC(=O)C(CC(C)C)NS(=O)(=O)c2ccc3c(c2)oc(=O)n3C)cc1 (stereo not drawn),inactive: -1.06%,–
O=C(NCc1ccc(Cl)cc1)c1cnc(N2CCCCC2)c2ccccc12,inactive: -0.676%,–
Cc1cccc(N2CCN(CCNC(=O)C3COc4ccccc4C3)CC2)c1C (stereo not drawn),inactive: -19.3%,–
O=C(O)c1cc(-n2c(/C=C\c3ccc(F)cc3)nc3ccccc3c2=O)ccc1Cl,inactive: 9.54%,–
Cc1ccc(S(=O)(=O)NCCS(=O)(=O)N2CCN(c3ccccc3)CC2)cc1,inactive: 0.666%,–
COc1ccc(CNC(=O)C2CCN(Cc3nc(-c4ccc(Cl)cc4)oc3C)CC2)cc1,inactive: -6.71%,–
Cc1nc(N2CCOCC2)c2c(C(=O)Nc3cccc(C(F)(F)F)c3)c(C)oc2n1,inactive: 5.72%,–
Cc1ccc(Cc2nc3ccccc3nc2SCC(=O)Nc2ccc3c(c2)OCO3)cc1,inactive: 0.0901%,–
CSc1ccc(CCNC(=O)CCc2c(C)nc3c(c(C)nn3-c3ccccc3)c2C)cc1,inactive: -20%,–
O=C(NC1CC(=O)N(c2cccc(F)c2)C1)c1ccc(Br)o1 (stereo not drawn),inactive: -0.213%,–
CC(=O)c1ccc(NC(=O)CCSc2nc(-c3ccco3)cc(C(F)(F)F)n2)cc1,inactive: -19.7%,–
Cc1c(S(=O)(=O)c2cccc(Cl)c2)nnn1-c1cccc(C(F)(F)F)c1,inactive: 0.28%,–
COC(=O)c1c(-c2ccc(Cl)cc2)noc1N1CCN(c2ccc(C)cc2C)CC1,inactive: 7.99%,–
CC(C)c1ccc(NC(=O)C2CCCN(S(=O)(=O)c3cccc4cccnc34)C2)cc1 (stereo not drawn),inactive: -1.74%,–
CCCCN(C)CCCNC(=O)C1CCN(c2nc3ccc(CC)cc3s2)CC1,–,active: 18.5 µM
COc1ccc(OC)c(NC(=O)c2noc3c2CCCC3)c1,inactive: 3.52%,–
CCOC(=O)Cc1ccc(NC(=O)N2CCOc3ccc(C)cc32)cc1,inactive: 8.1%,–
CCOC(=O)c1cc(S(=O)(=O)N2CCN(c3ccccc3)CC2)[nH]n1,inactive: -4.07%,–
CCc1nnc2c3ccccc3nc(Nc3ccc(C(C)=O)cc3)n12,inactive: -1.98%,–
Cc1ccc2nc(N(Cc3cccnc3)C(=O)COc3ccccc3)sc2c1,inactive: -5.08%,–
CCOC(=O)Cn1c(=O)oc2cc(S(=O)(=O)N3CCN(c4cccc(C)c4C)CC3)ccc21,inactive: -9.63%,–
O=C(Nc1c(Cl)cccc1Cl)c1cc(-c2ccc3c(c2)OCO3)on1,inactive: 6.08%,–

SMILES,"activity change, negative = inhibition",Potency
Cc1ccc(OC(C)C(=O)Nc2nonc2-c2ccc(Br)cc2)cc1C (stereo not drawn),inactive: 0.122%,–
Cc1ccc(Nc2c(-c3c[nH]c4ccccc34)nc3cc(C)ccn23)cc1,inactive: 1.74%,–
COc1cc(OC)c(OC)cc1/C=C/c1nc2cc3ccccc3cc2c(=O)n1-c1ccc(Cl)cc1,inactive: 7.78%,–
CCOc1ccccc1NC(=O)CSc1nc2c(oc3ccccc32)c(=O)n1-c1ccc(C)c(C)c1,inactive: -7.65%,–
CC(C)OCCCNC(=O)c1ccc2c(c1)N(Cc1c(F)cccc1Cl)C(=O)c1ccccc1S2,inactive: 1.13%,–
COc1ccc(-c2nn3c(=O)cc(CN4CCN(C(=O)c5ccc(C(C)(C)C)cc5)CC4)nc3s2)cc1,inactive: 10.6%,–
CCOC(=O)CC(NS(=O)(=O)c1ccc2[nH]c3c(c2c1)CCCC3)c1ccccc1Cl (stereo not drawn),inactive: -9.25%,–
COc1ccc(C(=O)NCC(c2cccnc2)N2CCc3ccccc32)cc1 (stereo not drawn),inactive: 6.87%,–
CCOC(=O)c1c(N)n(-c2ccc(C)c(Cl)c2)c2nc3ccccc3nc12,inactive: 1.63%,–
Cc1ccc(Oc2c(C(F)(F)F)oc3c(CN4CCCCC4C)c(O)ccc3c2=O)cc1 (stereo not drawn),inactive: -6.98%,–
O=C(CCC1N=C2c3ccccc3N=C(SCc3ccc(F)cc3)N2C1=O)NCc1cccs1 (stereo not drawn),inactive: -4.4%,–
CC1=C(c2ccc(C)c(C)c2)S(=O)(=O)N(Cc2ccc(C(=O)NCc3cccc(C)c3)cc2)C1=O,inactive: -0.47%,–
Cc1cccc(NC(=O)c2oc3ccccc3c2NC(=O)Cc2coc3c(C)c(C)ccc23)c1,inactive: 1.58%,–
CCC(C(=O)Nc1cc(Cl)ccc1OC)n1nc(-c2ccccc2)ccc1=O (stereo not drawn),inactive: -0.401%,–
CCOC(=O)C1=C(CS(=O)(=O)c2cccc(C(F)(F)F)c2)NC(=O)NC1c1cccc(OC)c1 (stereo not drawn),inactive: -18.1%,–
COc1ccccc1CNC(=O)C1CCCN(c2nc3ccccc3n3cccc23)C1 (stereo not drawn),inactive: 9%,–
COc1ccc(Cl)cc1C(=O)Nc1sc2c(c1C(=O)OC(C)C)CCCC2,inactive: 2.58%,–
O=C(C1CC1)N1CCc2cc(Br)cc(S(=O)(=O)N3CCN(c4cccc(C(F)(F)F)c4)CC3)c21,inactive: 9.29%,–
CCCCOc1ccc(-c2nn(-c3ccccc3)cc2C2NC(=O)NC(C)=C2C(=O)OC)cc1 (stereo not drawn),inactive: -0.29%,–
CC(=O)N1CCc2cc(Br)cc(S(=O)(=O)N3CCN(c4cccc(C(F)(F)F)c4)CC3)c21,inactive: 2.07%,–
CCCCN(C)c1nc2c(S(=O)(=O)c3ccc(CC)cc3)nnn2c2ccc(Cl)cc12,inactive: 2.78%,–
COc1ccccc1NC(=O)C1=C(C)Nc2c(C(=O)Nc3ccc(F)cc3)cnn2C1c1cccc([N+](=O)[O-])c1 (stereo not drawn),inactive: 0.0441%,–
COc1cc(C(CC(=O)NCc2ccc(F)cc2)N2Cc3ccccc3C2=O)cc(OC)c1OC (stereo not drawn),inactive: -1.67%,–
COc1ccc(NC(=O)Cn2c(=O)n(-c3ccc(OC)c(OC)c3)c(=O)c3ccccc32)cc1,inactive: -5.68%,–
